Experimental data as given in PubChem BioAssay AID624296 (National Center for Advancing Translational Sciences (NCATS), 2012).
In all, about 350,000 compounds went through this assay and about 9,900 (2.8%) were called active. The shares of active, inactive and inconclusive entries below differ from those in the screen. Calls follow the shape of the dose curve; as a rule, active = well fitted activation curve with a large enough effect; inconclusive = small, poorly fitted or top-dose-only effect; inactive = no such curve, though single readings can be large or run the other way. Potencies of inconclusive entries are left out as doubtful fits.

Assay: A quantitative high throughput screen for small molecules that induce DNA re-replication in MCF 10a normal breast cells. Also: nearly all actives have a fitted effect of over 50% in size.
Details: MCF 10A DNA re-replication, Hoechst nuclear intensity, 48 h; series mostly up to 46.1 µM
Potency is read from the fitted curve at half-maximal effect; tags tell the direction and shape of the fitted curve.

SMILES	Potency
O=C(CCCN1C(=O)c2ccccc2C1=O)Nc1c2c(nc3c1CCC3)CCC2	inactive
Cc1ccc(/C=N/NC(=S)N2CCOCC2)cc1	inconclusive [activator, single point]
COc1cccc(Nc2nc(N)nc(CCl)n2)c1	active: 18.4 µM
O=C(O)c1ccccc1N=Nc1ccc(O)cc1	inconclusive [activator, single point]
CCc1ccc(C2C(C#N)=C(N)Oc3cc(N)ccc32)cc1 (stereo not given)	inconclusive [activator, single point]
COc1ccc(C(C[N+](=O)[O-])c2c(-c3ccccc3)cc3ccccn23)cc1 (stereo not given)	active: 18.4 µM
CC(=O)Nc1ccc(Nc2cc(C(C)C)nc3c(-c4ccccc4)c(C)nn23)cc1	inconclusive [activator, partial curve, poor fit]
COC(=O)C1=C(O)/C(=C\c2ccc(OCC(=O)Nc3ccc(OC)cc3)cc2)N=C1C	inconclusive [activator, single point]
COc1cccc(OC)c1C(=O)Nc1cc(C)nn1-c1nc2ccccc2[nH]1	inconclusive [activator, single point]
CCOc1cc(/C=C(/C#N)c2nc3ccccc3[nH]2)ccc1Oc1ccc([N+](=O)[O-])cn1	inconclusive [activator, single point]
CN(C)C(=O)C#Cc1ccccc1	inactive
O=C1C=C(c2ccc(Cl)nc2)C[C@@H](c2ccc3c(c2)OCO3)C1	inconclusive [activator, single point]
Cc1ccc(-c2csc(NC(=O)C3CC=CCC3C(=O)O)c2C(=O)OC(C)C)cc1 (stereo not given)	inconclusive [activator, partial curve, poor fit]
O=S(=O)(c1ccc(NC(=S)N/N=C/c2c3ccccc3cc3ccccc23)cc1)N1CCOCC1	inconclusive [activator, partial curve, poor fit]
CC(C)C(=O)NC(c1ccco1)c1c(O)ccc2ccccc12 (stereo not given)	active: 20.6 µM
CCOC(=O)C(=O)NNc1ccc(C)cc1	inconclusive [activator, partial curve, poor fit]
CCn1c(=NC(=O)c2ccc(S(=O)(=O)N3CCOCC3)cc2)sc2cccc(OC)c21	inconclusive [activator, partial curve]
O=S(=O)(c1cccc(-c2n[nH]c(=S)n2-c2ccc(OC(F)(F)F)cc2)c1)N1CCOCC1	inactive
CC(=O)Nc1ccccc1OCc1nnc(-c2ccccc2Cl)o1	inactive
CCCCNc1ncnc2c1cnn2Cc1ccc(Cl)cc1	inconclusive [activator, partial curve, poor fit]
NC(=O)CSc1nnc(-c2cc(-c3cccs3)nc3ccccc23)o1	inconclusive [activator, partial curve, poor fit]
Cc1cc(NC(=O)Cn2nnc(-c3ccccc3NC(=O)c3ccccc3F)n2)no1	inactive
CCOc1ccc2ncc(C(=O)c3ccc(OC)cc3)c(N3CCN(CC)CC3)c2c1	inactive
CCCn1c(N)c(C(=O)COC(=O)c2c(C)noc2C)c(=O)n(C)c1=O	inactive

SMILES	Potency
CC1/C(=N/O)CC(c2ccccc2)NC1c1ccccc1 (stereo not given)	inactive
CCOC(=O)c1c(-c2cccs2)csc1NC(=O)CN1CCOCC1	inconclusive [activator, full curve, poor fit]
CN(C)/C=N/c1ncn(-c2ncc(C(F)(F)F)cc2Cl)n1	inconclusive [activator, single point]
O=C(NCCc1ccc(F)cc1)C(=O)NCC1CCCN1S(=O)(=O)c1ccccc1 (stereo not given)	inconclusive [activator, partial curve, poor fit]
O=C(COC(=O)Cc1ccc(S(=O)(=O)N2CCOCC2)s1)NCc1ccccc1	inconclusive [activator, partial curve, poor fit]
CCCNC(=O)CCn1c(-c2ccc(C)cc2)cc(C(=O)OCC)c1C	inactive
CCOc1ccc2[nH]c(=O)c(CN(CC3COCCO3)C(=O)c3ccco3)cc2c1 (stereo not given)	inactive
O=C(NCCCOc1cccc(CN2CCCCC2)c1)c1ccc(Cl)c(Cl)c1	inconclusive [activator, partial curve, poor fit]
CN(c1ccccc1)S(=O)(=O)c1cccc(C(=O)Nc2ccc(N3CCOCC3)cc2)c1	inconclusive [activator, partial curve, poor fit]
COc1ccc(C(=O)N2CCN(c3ccc(NC(=O)Cc4ccccc4)cc3)CC2)cc1	inconclusive [activator, partial curve, poor fit]
CCOc1ccc(/C=C2\SC(=S)N(CC(=O)Nc3ccccn3)C2=O)cc1	inconclusive [activator, partial curve, poor fit]
Cc1ccc(S(=O)(=O)/N=C(\Sc2ccccc2)c2ccccc2)cc1	inconclusive [activator, single point]
Cc1cc(=O)n(C2CCS(=O)(=O)C2)[nH]1 (stereo not given)	inconclusive [activator, single point]
NC(=O)C1(N2CCCCC2)CCN(C(=O)CSc2nc3ccccc3o2)CC1	inconclusive [activator, partial curve, poor fit]
Cc1cc(C(=O)N2CCc3ccccc32)c2cc(F)ccc2n1	inconclusive [activator, full curve, poor fit]
CCn1c(NC(=O)C2CCCCC2)nc2ccccc21	inactive
CC1CCN(Cc2nc(-c3ccccc3)no2)CC1	inactive
CC(C)(C)c1ccc(CNc2ccc([N+](=O)[O-])cn2)cc1	inconclusive [activator, partial curve]
CN(Cc1ccccc1F)C(=O)C1CCCN(C(=O)c2ccc(Cl)cc2)C1 (stereo not given)	inconclusive [activator, partial curve]
Cc1cc2cc3c(cc2nc1SCC(=O)N1c2ccccc2CC1C)OCO3 (stereo not given)	inactive
COc1cc(C(=O)Nc2ccncc2)c([N+](=O)[O-])cc1OC	inactive
COc1cc(/C=N/NC(=O)CSc2cc(C)c(Br)cc2C)ccc1O	inconclusive [activator, single point]
CN1/C(=C\C(=O)c2cncc(Br)c2)C(C)(C)c2ccccc21	active: 16.4 µM
O=C(CN1CCN(c2ccccn2)CC1)Nc1ccc(F)cc1F	inactive

SMILES	Potency
S=C(Nc1cccc2ccccc12)NN1CCOCC1	inactive
Cc1ccc(S(=O)(=O)N2CCOCC2)cc1C(=O)N1c2ccccc2Sc2ccccc21	inactive
O=C1C=CN(Cc2ccccc2)CC1	inconclusive [activator, full curve, poor fit]
Cc1nc2sccn2c1P(c1c(C)nc2sccn12)c1c(C)nc2sccn12	inactive
Cc1noc(/C=C/c2ccco2)c1S(=O)(=O)N1CCC(C(=O)N(C)Cc2ccccc2)CC1	inconclusive [activator, single point]
Cc1cccc2cc(C3CC(c4ccco4)=NN3S(=O)(=O)c3ccccc3)c(Cl)nc12 (stereo not given)	inconclusive [activator, partial curve, poor fit]
COc1ccc(Nc2nc(C)cc(=O)[nH]2)cc1	inactive
CCCC(C(=O)NC(C)(C)C)N(C(=O)c1snc(C(N)=O)c1N)c1ccc2c(c1)OCCO2 (stereo not given)	inconclusive [activator, partial curve, poor fit]
CCC1=C/C(=C/c2sc3ccccc3[n+]2CC)CC(C)(C)C1	inconclusive [activator, single point]
O=C1C2CCCN2C(=S)N1c1ccccc1 (stereo not given)	inactive
COc1ccc(Cl)cc1NC(=O)C/C(C)=N/NC(=O)CCc1ccccc1	inconclusive [activator, single point]
O=C(CN1CCOCCOCCOCCOCC1)Nc1ccccc1	inconclusive [activator, full curve, poor fit]
O=C(CSc1ccc(-c2ccccn2)nn1)Nc1ccccc1	inconclusive [activator, single point]
CCN(CC)S(=O)(=O)c1cc(-c2nnc(-c3ccc(Br)cc3)o2)ccc1Br	inconclusive [activator, partial curve, poor fit]
COc1ccc(-n2c(Cc3cccn3C)nnc2SCC(=O)Nc2ccc(C)cc2)cc1	inactive
COC(=O)c1cc2sc(Cl)cc2n1CC(=O)Nc1cccc(SC)c1	inconclusive [activator, single point]
CCN1CCN(C(=S)Nc2ccc(Cl)c(Cl)c2)CC1	inactive
CCOC(=O)C1(Cc2ccc(O)cc2)NC(c2ccccc2F)C2C(=O)N(C)C(=O)C21 (stereo not given)	inconclusive [activator, partial curve, poor fit]
C=CCN1C=CC(=O)[C@@H](OC(=O)Nc2ccc(Br)cc2)[C@H]1c1ccccc1Br	inconclusive [activator, partial curve, poor fit]
Cc1nn(-c2ccccc2)c2nc(C(Cl)(Cl)Cl)[nH]c(=O)c12	inactive
O=C(C1=C(O)C(=O)N(CC2CCCO2)C1c1ccc(Cl)cc1Cl)c1ccco1 (stereo not given)	inactive
CC(=O)c1c(C)[nH]c(C(=O)N(CCc2ccccc2)Cc2ccccc2)c1C	inconclusive [activator, single point]
